According to the supplement of paper PMC4604168 (melanoma cell lines):
This is one part of the list. Many values rest on one well or one pass, so single values are uncertain.
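Further: cells treated in 1,536-well plates, then fixed and DAPI-stained, with nuclei counted from automated high-throughput microscope images.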

The compounds below were run on A101D (assay: cell count relative to DMSO control; melanoma cells; higher = more viable cells). Conditions: library dose: standard library concentration; 72 h.
Compound `Cc1cn(-c2cc(NC(=O)c3ccc(C)c(Nc4nccc(-c5cccnc5)n4)c3)cc(C(F)(F)F)c2)cn1` [nilotinib] + Cn1sc(=O)n(Cc2ccccc2)c1=O [TDZD-8] (first compound 1 µM, partner dose 2 µM) has a cell count of 116%.
`Cn1c(=O)n(-c2ccc(C(C)(C)C#N)cc2)c2c3cc(-c4cnc5ccccc5c4)ccc3ncc21` + COc1cc(N2CCC(N3CCN(C)CC3)CC2)ccc1Nc1ncc(Cl)c(Nc2ccccc2S(=O)(=O)C(C)C)n1 [NVP-TAE684] (first compound 0.02 µM, partner dose 0.4 µM) was tested, and the cell count was 49.8%.
For `COc1ccc(C2=N[C@@H](c3ccc(Cl)cc3)[C@@H](c3ccc(Cl)cc3)N2C(=O)N2CCNC(=O)C2)c(OC(C)C)c1` [Nutlin-3] + C[C@]1(c2nc3c(C(N)=O)cccc3[nH]2)CCCN1 [Veliparib] (first compound 0.5 µM, partner dose 7 µM), the cell count was 61.8%.
Compound `Cc1cn(-c2cc(NC(=O)c3ccc(C)c(Nc4nccc(-c5cccnc5)n4)c3)cc(C(F)(F)F)c2)cn1` [nilotinib] + COc1cc2c(Oc3ccc4[nH]c(C)cc4c3F)ncnc2cc1OCCCN1CCCC1 [cediranib] (first compound 1 µM, partner dose 2 µM) has a cell count of 93%.
For `CC(C)C[C@H](NC(=O)[C@H](Cc1ccccc1)NC(=O)c1cnccn1)B(O)O` [Bortezomib] + COc1cc2ncnc(Nc3ccc(Oc4ccccc4)cc3)c2cc1OC [SrcI1] (first compound 0.005 µM, partner dose 10 µM), the cell count was 2.43%.
In the case of `Cn1c(=O)n(-c2ccc(C(C)(C)C#N)cc2)c2c3cc(-c4cnc5ccccc5c4)ccc3ncc21` + Cc1cc(N2CCOCC2)cc2[nH]c(-c3c(NC[C@@H](O)c4cccc(Cl)c4)cc[nH]c3=O)nc12 [BMS536924] (first compound 0.02 µM, partner dose 1 µM), the cell count is reported as 60%.
Work on `Cn1c(=O)n(-c2ccc(C(C)(C)C#N)cc2)c2c3cc(-c4cnc5ccccc5c4)ccc3ncc21` + CCc1ccc(CCOc2ccc(CC3SC(=O)NC3=O)cc2)nc1 [pioglitazone] (first compound 0.02 µM, partner dose 10 µM) yielded a cell count of 83.8%.
Work on `Cc1cc(Nc2cc(N3CCN(C)CC3)nc(/C=C/c3ccccc3)n2)n[nH]1` + COc1ccc2c(c1)CCC1C2CCC2(C)C(NCCCCCCN3C(=O)C=CC3=O)CCC12 [U73122] (first compound 0.2 µM, partner dose 2 µM) yielded a cell count of 55.3%.
`COc1ccc(C2=N[C@@H](c3ccc(Cl)cc3)[C@@H](c3ccc(Cl)cc3)N2C(=O)N2CCNC(=O)C2)c(OC(C)C)c1` [Nutlin-3] + O=C(O)C(=O)Nc1sc2c(c1C(=O)O)CCNC2 [TCS401] (first compound 0.5 µM, partner dose 8.33333 µM) showed a cell count of 75.2%.
Work on `Cc1cn(-c2cc(NC(=O)c3ccc(C)c(Nc4nccc(-c5cccnc5)n4)c3)cc(C(F)(F)F)c2)cn1` [nilotinib] + COc1cc(N2CCC(N3CCN(C)CC3)CC2)ccc1Nc1ncc(Cl)c(Nc2ccccc2S(=O)(=O)C(C)C)n1 [NVP-TAE684] (first compound 1 µM, partner dose 0.4 µM) yielded a cell count of 96.7%.
For `Cc1cc(Nc2cc(N3CCN(C)CC3)nc(/C=C/c3ccccc3)n2)n[nH]1` + Oc1cc(-c2nc(-c3ccccc3)[nH]c2-c2ccncc2)ccc1Cl [L779450] (first compound 0.2 µM, partner dose 1 µM), the cell count was 69.1%.
For `Cn1c(=O)n(-c2ccc(C(C)(C)C#N)cc2)c2c3cc(-c4cnc5ccccc5c4)ccc3ncc21` + Cc1cc([N+](=O)[O-])ccc1NS(=O)(=O)c1cc(Cl)ccc1Cl [FH535] (first compound 0.02 µM, partner dose 5 µM), the cell count was 55.7%.
With `Cn1c(=O)n(-c2ccc(C(C)(C)C#N)cc2)c2c3cc(-c4cnc5ccccc5c4)ccc3ncc21` + O=c1cc(-c2cccc3c2Sc2ccccc2S3)oc(N2CCOCC2)c1 [KU55933] (first compound 0.02 µM, partner dose 5 µM) the cell count was 71.3%.
`COc1ccc(C2=N[C@@H](c3ccc(Cl)cc3)[C@@H](c3ccc(Cl)cc3)N2C(=O)N2CCNC(=O)C2)c(OC(C)C)c1` [Nutlin-3] + COc1ccc(COc2ccc(Cc3cnc(N)nc3N)cc2OC)cc1 [GW2580] (first compound 0.5 µM, partner dose 5 µM) gave a cell count of 71.6%.
